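Values below derive from 48-hour exposures of cells grown in 96-well plates, with endpoints linearly interpolated between the two concentrations bracketing the appropriate inhibition level. Here, GI50 denotes the concentration required for 50% inhibition of growth. TGI is the concentration that stops growth completely.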
System: NCI-H322M lung
Assay: NCI anticancer screen, dose series, 48 h

| SMILES | GI50 [µM] | TGI [µM] |
| --- | --- | --- |
| COCC1(CO)C(=O)C2CCN1CC2 (stereo not drawn) | > 58.4 | > 100 |
| COC1=CC2C(c3cc4ccccc4n3S(=O)(=O)c3ccccc3)CC1CN2C(=O)OCc1ccccc1 (stereo not drawn) |  | > 100 |

Source: PubChem BioAssay (NCI)
